Experimental data from PubChem BioAssay AID504845 (National Center for Advancing Translational Sciences (NCATS), 2011).
Values joined by “and” are separate entries in the source; they are usually repeats but may differ in a detail not shown here. Identical values can stand only once. Screen size: about 390,000 compounds; about 150 (0.038%) were called active. Inconclusive results, whose numbers are uncertain, are shown with a selection of clear calls. Calls come from the whole dose curve; as a rule, active = well fitted inhibition curve with a large enough effect; inconclusive = small, poorly fitted or top-dose-only effect; inactive = no such curve, though single readings can be large or run the other way. Potencies beside an inconclusive call are fits to weak or partial responses and may not hold up.

target: Regulator of G-protein signaling 4 (Homo sapiens) (UniProt P49798); experiment: Inhibitors of Regulator of G Protein Signaling (RGS) 4: qHTS; details: Transcreener GDP fluorescence polarization, RGS4-accelerated GTP hydrolysis; series mostly up to 114 µM; note: nearly all actives have a fitted effect of over 75% in size
UniProt P49798, sequence (P49798 whole entry, looked up): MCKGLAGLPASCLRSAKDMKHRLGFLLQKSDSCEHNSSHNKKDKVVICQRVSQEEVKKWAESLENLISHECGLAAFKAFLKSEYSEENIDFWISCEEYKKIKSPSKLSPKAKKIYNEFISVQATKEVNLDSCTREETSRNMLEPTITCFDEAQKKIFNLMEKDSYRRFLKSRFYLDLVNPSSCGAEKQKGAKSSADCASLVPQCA
How it was run: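 MLSMR compounds (23 nl, pin-transferred) preincubated 10 min at room temperature with a 500nM (2x) first reagent, then RGS4 at 900nM (2x) plus Transcreener GDP mix added; fluorescence polarization (620/688 nm) read before and after 90 min at 30 °C.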
Potency is the fitted concentration of half-maximal effect; tags give direction and shape of the fitted curve.

How did the Potency turn out when `Cc1cc(=O)oc2cc(OCC(=O)N3CCOCC3)ccc12` was run?
The Potency was inconclusive: 79.4 µM [inhibitor, partial curve, poor fit].

For `Cc1ccc([N+](=O)[O-])cc1S(=O)(=O)N1CCNCC1`, which Potency is on record?
The Potency was inconclusive: 50.1 µM [inhibitor, partial curve, poor fit].

How did the Potency turn out when `CCN(c1ccccc1)S(=O)(=O)c1ccc(OC)c(NC(=O)c2ccccc2OC)c1` was run?
Its Potency is inconclusive: 79.4 µM [inhibitor, partial curve, poor fit].

With `CCCC(=O)Nc1cccc(NC(=O)c2ccc3c(c2)OCO3)c1` as the compound, how does the Potency read?
The Potency was “inactive”.

`Cc1cccc(C(=O)OCC(=O)N2CCc3ccccc3C2)c1O` was tested. Which Potency did it give?
The Potency was inconclusive: 89.1 µM [inhibitor, single point].

How did the Potency turn out when `O=c1oc2ccccc2c2oc3cc(O)c(O)cc3c12` was run?
The Potency was “inactive”.

With `COC(=O)c1sc(=S)n(-c2cccc(Cl)c2)c1N` as the compound, how does the Potency read?
The Potency was inconclusive: 79.4 µM [inhibitor, partial curve, poor fit].

How did the Potency turn out when `O=C(Nc1ccc(Cl)c(C(F)(F)F)c1)NC1CC2CCCC(C1)N2Cc1ccccc1` (stereo not drawn) was run?
Its Potency is “inactive”.

With `Fc1cc(F)c(C2SCCN2C(=S)Nc2cccc(C(F)(F)F)c2)c(F)c1` (stereo not drawn) as the compound, how does the Potency read?
Its Potency is “inactive”.

With `CCN1CCN(C(=S)c2ccc(O)cc2)CC1` as the compound, how does the Potency read?
The Potency was inconclusive: 17.8 µM [inhibitor, full curve, poor fit].

How did the Potency turn out when `Cc1c(C(=O)OCc2nc3ccsc3c(=O)[nH]2)oc2ccccc12` was run?
The Potency was “inactive”.

`CCOC(=O)C1(CCc2ccccc2)CCN(Cc2ccc(C(=O)OC)cc2)CC1` was tested. Which Potency did it give?
Its Potency is “inactive”.

`Cc1cccc(Cn2c(=O)n(-c3ccc(CC(=O)NCc4ccco4)cc3)c(=O)c3sccc32)c1` was tested. Which Potency did it give?
Its Potency is “inactive”.

`Cc1ccc(CNC(=O)c2cc3c(=O)n(C)c4ccccc4c3n2C)o1` was tested. Which Potency did it give?
Its Potency is “inactive”.

With `CCC(CN(C)C)Oc1cc(NCc2ccccc2)c2ncn(C(C)C)c2c1` (stereo not drawn) as the compound, how does the Potency read?
The Potency was inconclusive: 50.1 µM [inhibitor, partial curve, poor fit].

`CCOc1ccc2nc(SC3CC(=O)N(c4ccccc4)C3=O)sc2c1` (stereo not drawn) was tested. Which Potency did it give?
Its Potency is inconclusive: 70.8 µM [inhibitor, partial curve, poor fit].

Which Potency does the source give for `O=C(Nc1ccc2oc(=O)ccc2c1)c1ccco1` here?
The Potency was “inactive”.

`Cc1ccc(CCc2nnc(SCC(=O)Nc3cc(Cl)ccc3Cl)n2-c2ccccc2)o1` was tested. Which Potency did it give?
The Potency was inconclusive: 44.7 µM [inhibitor, partial curve, poor fit].

Which Potency does the source give for `C#CCOCCOCCOCCNc1nc(N2CCN(C(=O)CCCCCCCCCCNC(=O)[C@H](CCCCN)n3cc(C[C@@H](C)CC)nn3)CC2)nc(N2CCN(C(=O)CCCCCCCCCCNC(=O)[C@@H]([C@H](C)O)n3cc(C)nn3)CC2)n1` here?
Its Potency is inconclusive: 31.6 µM [inhibitor, full curve, poor fit].

For `CN(C(=S)NC(=O)c1ccc(Cl)cc1)C1CCCCC1`, which Potency is on record?
Its Potency is inconclusive: 44.7 µM [inhibitor, partial curve, poor fit].

With `CC1Cc2ccccc2N1C(=O)CSc1nnc(C2CC2)n1C` (stereo not drawn) as the compound, how does the Potency read?
Its Potency is inconclusive: 50.1 µM [inhibitor, partial curve, poor fit].

How did the Potency turn out when `O=C(COC(=O)c1ccc(S(=O)(=O)N2CCCC2)cc1)Nc1ccc(N2CCOCC2)cc1` was run?
The Potency was inconclusive: 79.4 µM [inhibitor, partial curve, poor fit].

How did the Potency turn out when `CCN(CC(=O)Nc1c(F)cccc1F)C(=O)c1ccccc1F` was run?
The Potency was “inactive”.

With `CCCc1[nH][nH]c(=O)c1C(c1cccc(Cl)c1)C(C#N)C#N` (stereo not drawn) as the compound, how does the Potency read?
The Potency was inconclusive: 70.8 µM [inhibitor, single point].

How did the Potency turn out when `COc1cc([N+](=O)[O-])ccc1-c1ccc(/C=C2\C(=O)ON=C2c2ccccc2)o1` was run?
Its Potency is inconclusive: 17.8 µM [inhibitor, full curve, poor fit].

How did the Potency turn out when `O=C(CN1C(=O)/C(=C/c2cccc(Br)c2)SC1=S)NCCCN1CCOCC1` was run?
The Potency was inconclusive: 79.4 µM [inhibitor, partial curve, poor fit].

For `COc1ccc(CC2(CO)CCN(Cc3ccc4nsnc4c3)CC2)cc1`, which Potency is on record?
The Potency was “inactive”.

How did the Potency turn out when `C=CCn1c(SCC(=O)NCCC2=CCCCC2)nc2ccc(Cl)cc2c1=O` was run?
The Potency was inconclusive: 17.8 µM [inhibitor, full curve, poor fit].

`CCOC(=O)/C(C#N)=C/c1c(N2CCN(c3ccc(OC)cc3)CC2)nc2c(C)cccn2c1=O` was tested. Which Potency did it give?
The Potency was “inactive”.

`CCc1c(C)c(C#N)c2[nH]c3ccccc3n2c1=S` was tested. Which Potency did it give?
Its Potency is inconclusive: 31.6 µM [inhibitor, full curve, poor fit].

Which Potency does the source give for `COc1ccc(C(C(=O)NC2CCCCC2)N(C(=O)c2cccs2)c2ccc3c(c2)OCO3)cc1` (stereo not drawn) here?
The Potency was “inactive”.

With `O=C(CSc1nc2ccccc2nc1Cc1ccc(Cl)cc1)N1CCCc2ccccc21` as the compound, how does the Potency read?
The Potency was “inactive”.

With `O=C(CN1C(=O)c2ccccc2C1=O)NCc1ccc(F)cc1` as the compound, how does the Potency read?
The Potency was inconclusive: 17.8 µM [inhibitor, full curve, poor fit].

`CO/N=C(/CNC(=O)c1cccc(Cl)c1)c1ccc(Cl)cc1` was tested. Which Potency did it give?
The Potency was “inactive”.

How did the Potency turn out when `CCn1c(COc2ccccc2OC)nc2ccccc21` was run?
The Potency was “inactive”.

Which Potency does the source give for `NCCCC(=O)O` here?
Its Potency is inconclusive: 6.7 nM [inhibitor, full curve, poor fit] and inconclusive: 376 nM [inhibitor, full curve, poor fit].

Which Potency does the source give for `COc1cc([N+](=O)[O-])cc(/C=N/NC(=O)c2cncc(Br)c2)c1O` here?
The Potency was “inactive”.

For `COc1ccc(C(=O)N/N=C/c2cc(Br)ccc2O)cc1OC`, which Potency is on record?
Its Potency is inconclusive: 35.5 µM [inhibitor, full curve, poor fit].

With `CC(=O)Nc1ccc(C(=O)OCC(=O)c2ccc(S(=O)(=O)N3CCCCC3)cc2)cc1` as the compound, how does the Potency read?
Its Potency is inconclusive: 31.6 µM [inhibitor, full curve, poor fit].

How did the Potency turn out when `Cc1cc(C(F)(F)F)n2[nH]c(=O)c(N=Nc3ccccc3)c2n1` was run?
Its Potency is “inactive”.

Which Potency does the source give for `c1ccc(-c2nnc3sc(-c4cc5ccccc5o4)nn23)cc1` here?
The Potency was inconclusive: 44.7 µM [inhibitor, partial curve, poor fit].

`CCn1nc(C(=O)OCC(=O)c2ccc3c(c2)OCCO3)c2ccccc2c1=O` was tested. Which Potency did it give?
Its Potency is inconclusive: 70.8 µM [inhibitor, partial curve, poor fit].

For `COC(=O)c1c(-c2ccc(S(C)(=O)=O)cc2)sc2ccc(OC)cc12`, which Potency is on record?
Its Potency is inconclusive: 44.7 µM [inhibitor, partial curve, poor fit].
